SMILES strings stand for the structures. Among all 52,000 compounds or so, about 1,700 (3.3%) were called active. Cut-off read from the data, not from the text of the source: active = survival mostly below about 52% (no sharp cut-off); inactive = mostly above about 56%. The list shows a part of the results.

The test system of the experiment is Wild type. The experiment is described as follows: growth inhibition of S. aureus wild type versus tarO mutant, primary screen, teichoic acid synthesis inhibitors, RN4220, OD600 (AID 463173). The following applies: S. aureus RN4220 wild type/DeltatarO growth, OD600, 18 h, active compounds read low, screened at 18.75 µg/mL (by protocol).
As to `N#C/C(=C\c1cn(CC(=O)NCC2CCCO2)c2ccccc12)C(=O)N1CCCC1` (stereo not drawn), the survival was inactive: 110%. Next, `COc1ccccc1C1CC(=O)N(c2cccc(C(F)(F)F)c2)C2=C1C(=O)OC2` (stereo not drawn): inactive: 73%; `CCCCOc1ccc(C(=O)N(Cc2ccco2)Cc2ccco2)cc1`: inactive: 108%. Next, `COc1ccc(-n2c(=O)c3c(c4cc(OC)ccc4n3C)n(CCC(C)C)c2=O)cc1`: inactive: 112%. Next, `COCCNC(=O)CCCn1c(SCc2ccccc2Cl)nc2c(sc3ccccc32)c1=O`: inactive: 152%; `COc1ccc(OCC(=O)Nc2ccc(-c3nc4ncccc4o3)cc2)cc1`: inactive: 119%; `Cc1cc(Br)cc2c(C(=O)OCC(=O)c3ccccc3)cc(-c3ccccc3)nc12`: inactive: 128%. Regarding `Cc1c(-c2nnc(SCC(=O)Nc3ccc(Cl)cc3)o2)nnn1-c1ccc(F)cc1`, the survival is inactive: 72%. Next, `O=S(=O)(c1ccccc1)N1CCC(O)(c2ccccc2)C2CCCCC21` (stereo not drawn): inactive: 125%; `Cc1cccc(N(CC(N)=O)C2SC(=O)N(Cc3cccc(C(=O)O)c3)C2=O)c1` (stereo not drawn): inactive: 70%. As for `CCC(=O)Nc1nnc2n1CCS2`, the survival is inactive: 77%. Next, `CCN1CCSc2ccc(C(=O)NCc3ccccc3Br)cc21`: inactive: 84%.

Turning to `Cc1cc(CN2CCN(c3ccc(F)cc3)CC2)cs1`, the survival was inactive: 86%. Next, `O=c1[nH]c(SCc2cccc(Cl)c2)nc2c1CCC2`: inactive: 91%; `O=S(=O)(NC1CCCCC1)c1cc(Cl)ccc1Cl`: inactive: 118%; `COc1ccccc1N1CCN(C(=O)c2cnc(N3CCOCC3)c3ccccc23)CC1`: inactive: 85%. Next, `COc1ccc(Cn2c(CO)cnc2SCc2cccc(C)c2)cc1`: inactive: 78%; `COc1ccccc1N1CCN(C(=O)CCS(=O)(=O)c2cc(Br)cc3c2N(C(C)=O)CC3)CC1`: inactive: 69%. Next, `COc1ccc(CNC(=O)c2cc3c(=O)n(C)c4ccccc4c3n2C)c(OC)c1`: inactive: 66%; `Cc1cc(C)c2oc(-c3ccc(C)c(NC(=O)/C=C/c4ccco4)c3)nc2c1`: inactive: 59%. Regarding `O=C(COc1ccc(Cl)cc1)NCC(c1ccco1)S(=O)(=O)c1ccc(Cl)cc1` (stereo not drawn), the survival was inactive: 78%. Next, `Cc1nc(N2CCCC2)ncc1C(=O)N1CCN(c2ccccc2F)CC1`: inactive: 74%. Next, `CCC(C)(C)NS(=O)(=O)c1cccs1`: inactive: 93%; `COc1cccc(-c2nc(S(=O)(=O)c3ccccc3)c(N3CCC(C)CC3)o2)c1`: inactive: 43%; `COc1ccc(/C=C/C(=O)O)cc1S(=O)(=O)N1CCCC1`: inactive: 101%. Next, `Cc1ccc(C(=O)n2nc(C)c(S(=O)(=O)N3CCOCC3)c2C)cc1C`: inactive: 82%; `CC1=C(C(=O)Nc2ccccc2)C(c2cc(Br)ccc2F)n2ncc(C(=O)Nc3ccccc3)c2N1` (stereo not drawn): inactive: 134%; `CCS(=O)(=O)c1c(Nc2cc(C)ccc2C)sc(C(=O)c2ccccc2)c1N`: inactive: 82%. As to `Cc1ccc(NC(=O)c2nnn(CC(=O)Nc3ccc(C)c(Cl)c3)c2N)c(C)c1`, the survival was inactive: 130%. Next, `O=C(c1nc2ncccn2n1)N1CCN(C(c2ccccc2)c2ccccc2)CC1`: inactive: 118%; `O=c1c2ccccc2nc(-c2ccc(Cl)cc2)n1CCCOc1ccccc1F`: inactive: 64%. For the molecule `CC(C)c1ccc(NC(=O)CC2Oc3ccccc3NC2=O)cc1` (stereo not drawn), the survival is inactive: 99%.

As for `Cc1cc(OCC(=O)N(Cc2ccc(N(C)C)cc2)C2CCS(=O)(=O)C2)cc(C)c1Cl` (stereo not drawn), the survival is inactive: 89%. Next, `COc1ccc(NC(=O)Cn2c(=O)n(-c3ccc(OC)cc3)c(=O)c3ccc(C(=O)NCc4ccc(C)cc4)cc32)cc1`: inactive: 80%; `COc1cc(C(=O)NCCc2csc3nc(-c4ccccc4C)nn23)cc(OC)c1OC`: inactive: 117%; `CC(C)Nc1c(-c2ccccc2)nc2ccccn12`: inactive: 108%. Turning to `Cc1ccc(Cl)cc1NC(=O)CN1C(=O)COc2ccc(S(=O)(=O)N3CCCCCC3)cc21`, the survival is inactive: 82%. On to `COc1ccccc1CCNC(=O)CCc1c(C)c2cc3c(C)c(C)oc3cc2oc1=O`, for which the survival is inactive: 109%.

For the molecule `Cc1ccc(NC(=O)C(=O)NCC(c2ccc3c(c2)OCO3)N2CCN(c3ccccc3)CC2)cc1` (stereo not drawn), the survival is inactive: 75%. `CCN(C(=O)C(Cc1ccccc1)NS(=O)(=O)c1cccc2nsnc12)c1ccccc1` (stereo not drawn): the survival was inactive: 74%. In the case of `O=C(c1cccs1)c1cn(CCOc2ccccc2Cl)c2ccccc12`, the survival is inactive: 80%.

In the case of `CCOc1ccc(CCNC(=O)c2ccc(-c3nc(COc4ccc(C)cc4)c(C)o3)cc2)cc1`, the survival was inactive: 81%. In the case of `COc1ccc(NC(=O)CSc2nc(-c3ccc(F)cc3)c3cccc(C)c3n2)cc1`, the survival was inactive: 85%. Next, `Cc1ccc(C)c(NC(=O)CCc2c(C)nn(-c3ccc(N4CCCC4)nn3)c2C)c1`: inactive: 60%; `COc1ccc(CCNC(=O)c2ccc(Cn3c(=O)c4ccccc4n(Cc4ccc(C)cc4)c3=O)cc2)cc1OC`: inactive: 99%. Next, `COc1ccc(C2C(=O)N(C3CCCCCC3)CC(=O)N2CCc2ccc(OC)c(OC)c2)cc1` (stereo not drawn): inactive: 98%. Next, `Cc1ccc2nc(CN3CCN(C(=O)Nc4ccc(C)c(F)c4)CC3)oc2c1`: inactive: 84%; `CCCCCC(=O)Nc1ccc(Cc2ccncc2)cc1`: inactive: 113%. Turning to `COCCCn1c(SCC(=O)Nc2ccccc2OC)nc2c(sc3ccccc32)c1=O`, the survival was inactive: 90%. Next, `COC(=O)c1ccc(OC)c(Cn2c(=O)n(-c3cccc(Cl)c3)c(=O)c3c4c(sc32)CN(C(C)=O)CC4)c1`: inactive: 75%.

Consider `COc1ccc(-c2oc3ncn4nc(COc5ccccc5C)nc4c3c2-c2ccc(OC)cc2)cc1`, for which the survival is inactive: 72%. Next, `CCOC(=O)C1CCCN(C(=O)Cn2ncn3c(cc4sc(CC)cc43)c2=O)C1` (stereo not drawn): inactive: 74%. Next, `CCC1=Nc2cc(C(=O)NCc3ccc(C)cc3)ccc2Sc2ccc(C)cc21`: inactive: 74%; `CCCCN(C)CCCNC(=O)c1cc(-c2cccnc2)nc2ccccc12`: inactive: 77%. Next, `COc1cc(OC)c(NC(=O)Cc2ccc(-n3c(C)nc4cccnc43)cc2)cc1Cl`: inactive: 124%. Turning to `O=C(Nc1ccc(F)cc1)[C@@H](c1ccccc1)N1Cc2ccccc2C1=O`, the survival was inactive: 59%. Next, `COc1ccc(CCNC(=O)CCc2cn(Cc3ccc(C)cc3)c3ccccc23)c(OC)c1OC`: inactive: 77%; `CCOc1cc2[nH]c(=O)n(CCCCC(=O)N3CCN(c4ccccc4)CC3)c(=O)c2cc1OCC`: inactive: 73%; `CCC(C)NC(=O)c1[nH]c2cc(C)ccc2c1Sc1ccc(Cl)cc1` (stereo not drawn): inactive: 96%. Next, `COc1ccc(-c2noc(N3CCC(C(=O)N(C)c4cc(Cl)ccc4OC)CC3)n2)cc1`: inactive: 85%; `O=C(Nn1cnnc1)c1cc2ccccc2oc1=O`: inactive: 111%.

As to `COc1ccc2c(CNCCc3cccs3)c(C(=O)O)n(Cc3ccccc3C)c2c1`, the survival was inactive: 93%. Next, `O=C(CN1C(=O)COc2ccc(S(=O)(=O)N3CCCCCC3)cc21)N1CCN(c2cccc(C(F)(F)F)c2)CC1`: inactive: 80%; `Cc1cccc(N2CCN(C(=O)C3CCN(S(=O)(=O)c4c(C)noc4C)CC3)CC2)c1C`: inactive: 87%. Next, `COc1ccc2oc(=O)c(-c3cn4c(n3)sc3cc(F)ccc34)cc2c1`: inactive: 67%. Next, `Cc1cccc(C)c1OCC(=O)Nc1c(C(=O)c2ccc(Br)cc2)oc2ccccc12`: inactive: 76%; `O=C(Nc1ccc(S(=O)(=O)N2CCCCC2)cc1)C1CCCCC1`: inactive: 106%. In the case of `CCCn1c2ccccc2c2cnn(CC(=O)N(Cc3ccccc3)C(C)C)c(=O)c21`, the survival was inactive: 134%.

Turning to `CCCOc1ccc(-c2nc(N3CCC(C)CC3)c3ccccc3n2)cc1`, the survival was active: -2%. Next, `CCCCOc1ccc(S(=O)(=O)NCc2csc(-c3ccc(OC)cc3)n2)cc1`: inactive: 85%; `COc1ccc(CC(=O)NCC(c2cccs2)S(=O)(=O)c2ccc(Cl)cc2)cc1` (stereo not drawn): inactive: 73%; `Cc1cc(F)ccc1NC(=O)c1ccc2nc(Cc3ccccc3)oc2c1`: inactive: 88%. Next, `COc1ccc(-n2ccn(CC(=O)NCc3ccc(C)cc3)c(=O)c2=O)cc1OC`: inactive: 85%; `Cc1ccc(OC(=O)c2ccco2)cc1C`: inactive: 105%; `Cc1ccc(S(=O)(=O)NCCc2nnc3ccc(SCc4ccc(F)cc4)nn23)cc1`: inactive: 105%. Next, `Cc1c(C(=O)N2CCCC2)oc2c1-c1nn(CC(=O)NC(C)c3ccccc3)cc1CC2` (stereo not drawn): inactive: 84%; `Cc1cn(C(=O)c2ccccc2)c(=O)[nH]c1=O`: inactive: 107%. Consider `CCC(C(=O)Nc1cc(OC)ccc1OC)n1c(C)c2cnn(-c3ccccc3)c(=O)c2c1C` (stereo not drawn), for which the survival was inactive: 131%. Next, `Cc1ccc2oc(C(=O)Nc3cccc(-c4nc5ccccc5s4)c3)c(C)c2c1`: inactive: 72%; `Cc1ccc(Nc2ncc(C(=O)N3CCN(c4cccc(Cl)c4)CC3)c3ccccc23)cc1Cl`: inactive: 108%; `COc1ccccc1Cn1cc(C(=O)c2ccc(F)cc2)c(=O)c2cc3c(cc21)OCO3`: inactive: 85%. Next, `Cc1ccccc1OCc1nnc(SCC(=O)O)n1CCc1ccccc1`: inactive: 99%; `Cc1ccc(C)c(N2CCN(C(=O)c3cc(S(=O)(=O)N4CCC(C)CC4)cn3C)CC2)c1`: inactive: 88%.

On to `COc1ccccc1C(=O)c1cn(CC(=O)Nc2ccccc2F)c2nc(C)ccc2c1=O`, for which the survival was inactive: 74%.

In the case of `C=CCc1cccc2cc(-c3nc4ccc(C(=O)O)cc4[nH]3)c(=O)oc12`, the survival is inactive: 83%.

With `COc1cc(NC(=O)CN2CCCN(S(=O)(=O)c3ccc(F)cc3)CC2)cc(OC)c1`, the survival was inactive: 81%. Next, `O=C(Nc1ccccc1Br)c1cc(S(=O)(=O)NC2CCCCC2)ccc1F`: inactive: 123%. Next, `Cc1ccc2nc(-c3ccc(NC(=O)COc4ccccc4C(C)(C)C)cc3)sc2c1`: inactive: 115%.

The values are drawn from PubChem BioAssay AID463173 (ICCB-Longwood Screening Facility, Harvard Medical School, 2010).
